According to patent US20220315654A1 (NOVIMMUNE, published 2022):
Substitutions are numbered along the chain they refer to. Values belong to the binder of their own block, whether it stands above or below them.

What was measured:
[1] = molecular target: T1, human PD-L1 on cells (human PD-L1-transfected CHO cells; IFNg-induced HT-1080 tumor cells) (human, UniProt Q9NZQ7); assay: inhibition of human PD-1-moFc binding to human PD-L1-transfected CHO cells, CellInsight CX5
T1 construct: whole, on cells; CHO transfectants are negative for human CD47; HT-1080 cells also carry CD47; also called hPD-L1-transfected CHO cells; PD-L1+CD47+ HT-1080

[2] = molecular target: T2, recombinant human PD-L1 soluble protein (biotinylated) (human, UniProt Q9NZQ7 part only, biotinylated); assay: BLI (OctetRED96), biotinylated PD-L1 on streptavidin biosensors, bsAb in solution, 1:1 global fit, 30 °C
T2 construct: Bought soluble protein; also called hPD-L1

[3] = molecular target: T3, human CD47 on cells (Raji, Nalm-6, HT-1080 tumor cells, human red blood cells) (human, UniProt Q08722); assay: flow cytometry on human red blood cells (CD47+, PD-L1-), detection with AF647 anti-human Fc F(ab')2
T3 construct: whole, on cells; Raji, Nalm-6 and red blood cells carry no or very little PD-L1; HT-1080 carries both targets; also called IAP

B1: K2×S28 CD47×PD-L1 bispecific antibody (bispecific antibody, human IgG1, kappa, lambda)
heavy: [no letters for about 120 residues][no letters for about 100 residues][no letters for human IgG1 Fc]
light 1: DIQMTQSPSSLSASVGDRVTITCRASQSISSYLNWYQQKPGKAPKLLIYAASSLQSGVPSRFSGSGSGTDFTLTISSLQPEDFATYYCQQMHPRAPKTFGQGTKVEIKRTVAAPSVFIFPPSDEQLKSGTASVVCLLNNFYPREAKVQWKVDNALQSGNSQESVTEQDSKDSTYSLSSTLTLSKADYEKHKVYACEVTHQGLSSPVTKSFNRGEC
light 2: QSVLTQPPSASGTPGQRVTISCSGSSSNIAHKPVNWYQQLPGTAPKLLIYHDNSRPSGVPDRFSGSKSGTSASLAISGLQSEDEADYYCAAWDFATWPATEVFGGGTKLTVLGQPKAAPSVTLFPPSSEELQANKATLVCLISDFYPGAVTVAWKADSSPVKAGVETTTPSKQSNNKYAASSYLSLTPEQWKSHRSYSCQVTHEGSTVEKTVAPTECS
notes: also called K2xS28; S28 bsAb
IC50 [1]: 120 pM
Kd [2]: 700 pM

B2: K2×S8 CD47×PD-L1 bispecific antibody (bispecific antibody, human IgG1, kappa, lambda)
heavy: [no letters for about 120 residues][no letters for about 100 residues][no letters for human IgG1 Fc]
light 1: B1 light 1
light 2: QSVLTQPPSASGTPGQRVTISCSGSSSNIRDSFVNWYQQLPGTAPKLLIYATNIRPSGVPDRFSGSKSGTSASLAISGLQSEDEADYYCAAWHPYYTLFGGGTKLTVLGQPKAAPSVTLFPPSSEELQANKATLVCLISDFYPGAVTVAWKADSSPVKAGVETTTPSKQSNNKYAASSYLSLTPEQWKSHRSYSCQVTHEGSTVEKTVAPTECS
notes: one CD47 arm (K2) and one PD-L1 arm (S8); also called K2xS8; K2×S8 bsAb
Kd [2]: 1230 pM

Now from value to binder:

Kd [2]: 310 pM
binding result [3]: binds
B3: K2×S100 CD47×PD-L1 bispecific antibody (bispecific antibody, human IgG1, kappa, lambda)
heavy: [no letters for about 120 residues][no letters for about 100 residues][no letters for human IgG1 Fc]
light 1: B1 light 1
light 2: B1 light 2 with A30E, H31N, N53T, S54T
notes: also called K2xS100; K2×S100 bsAb

IC50 [1]: 140 pM
B4: K2×S37 CD47×PD-L1 bispecific antibody (bispecific antibody, human IgG1, kappa, lambda)
heavy: [no letters for about 120 residues][no letters for about 100 residues][no letters for human IgG1 Fc]
light 1: B1 light 1
light 2: B2 light 2 with A91S, H93W, Y95F, Y96G, L98V
notes: also called K2xS37; S37 bsAb
